This is an account of results in PubChem BioAssay (NCATS).

Broadly, the AC50 is the midpoint of the concentration-response curve, whichever way the signal moves.

The list shows a part of the results. The main result of the screen is listed elsewhere. These columns were measured beside it and carry no call. For part of these data: The list favours compounds with an active or inconclusive main result. Potencies come from curve fits of mixed quality, noted in brackets.

Test [1] can be described thus: qHTS drug screen for cell cycle checkpoint inhibitors in PARPi-resistant BRCA-mutant ovarian cancer cell lines. (AID 1963452). Conditions: PEO1/OlaR viability, CellTiter-Glo luminescence, 96 h. In outline: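 PEO1, PEO4 and PEO1/OlaR ovarian cancer cells, 600 per well, exposed 96 h at 37C to a dilution series. Viability read by CellTiter-Glo luminescence, normalized to DMSO and empty wells; activity summarized as Z-AUC.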

The nature of test [2]: qHTS for identification of novel therapeutic agents for treatment of microphthalmiaassociated transcription factor (MiT) renal cell carcinoma (RCC) (AID 1963991). Conditions: CellTiter-Glo, 48 h; for z-score: stronger effect = lower value. The gist of the method:
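Three TFE3-fusion RCC lines (UOK109, UOK124, UOK145), 500 cells/well in complete medium, were treated with MIPE 4.0 compounds for 48 hours at 37 C. Viability was by CellTiter-Glo luminescence, normalized to DMSO (100%) and empty wells (0%); curves fitted over 11 concentrations.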

Setting [3] is: measured here: PEO1 parental viability.
Where [4] appears, read: TFE3-RCC UOK109 viability, measured here: UOK109 Z-AUC.
Where [5] appears, read: TFE3-RCC viability, measured here: UOK124 Z-AUC.
Where [6] appears, read: TFE3-RCC viability, measured here: UOK124 cell viability.
Where [7] appears, read: TFE3-RCC viability, measured here: UOK145 Z-AUC.
The mark [8] stands for this setting: TFE3-RCC viability, measured here: UOK145 cell viability.
Tags describe the fitted curve by direction and shape.

Turning to `C=CC(=O)Nc1cc2c(Nc3ccc(F)c(Cl)c3)ncnc2cc1OCCCN1CCOCC1`, the AC50 in test [1] (setting [3]) was 4.9 µM [falling, partial curve]; in test [1] (measured here: PEO4 viability) it was 3.09 µM [falling, full curve]; in test [2] (setting [6]) it was 14.8 µM [falling, partial curve]; in test [2] (setting [8]), 18.7 µM [falling, partial curve]. Also, the z-score in test [2] (setting [4]) is -2.92; in test [2] (setting [5]), -1.13; in test [2] (setting [7]), -0.326.

In the case of `CO[C@@H](C(=O)N1Cc2[nH]nc(NC(=O)c3ccc(N4CCN(C)CC4)cc3)c2C1)c1ccccc1`, the AC50 in test [1] (setting [3]) was 3.09 µM [falling, full curve]; in test [1] (measured here: PEO4 viability), 3.89 µM [falling, full curve, poor fit]; in test [2] (setting [6]) it was 8.33 µM [falling, partial curve]; in test [2] (setting [8]), 26.4 µM [falling, single point]. Further, the z-score in test [2] (setting [4]) was 0.0191; in test [2] (setting [5]), -0.402; in test [2] (setting [7]) it was -0.0232.

In the case of `CN(C)c1ccccc1CN1CCCN(Cc2ccccc2N(C)C)C1c1ccncc1`, the AC50 was 21.9 µM [falling, single point] in test [1] (setting [3]); 24.5 µM [falling, single point] in test [1] (measured here: PEO4 viability); 18.7 µM [falling, partial curve] in test [2] (setting [6]); 26.4 µM [falling, single point] in test [2] (setting [8]). Moreover, the z-score in test [2] (setting [4]) is -0.672; in test [2] (setting [5]), -0.00922; in test [2] (setting [7]), 0.308.

For `O=C(O)c1ccc2cc(-c3ccc(O)c(C45CC6CC(CC(C6)C4)C5)c3)ccc2c1`, the AC50 is 0.174 µM [falling, full curve] in test [1] (setting [3]); 0.275 µM [falling, full curve] in test [1] (measured here: PEO4 viability); 1.48 µM [falling, full curve] in test [2] (setting [6]); 2.96 µM [falling, full curve] in test [2] (setting [8]). Also, the z-score is 0.00617 in test [2] (setting [4]), -1.91 in test [2] (setting [5]) and -0.635 in test [2] (setting [7]).

In the case of `OC[C@H](Cc1ccccc1)Nc1nc(Oc2ccc3c(c2)CCC3)nc2c1ncn2Cc1ccc(-c2ccccc2)cc1`, the concentration at half-maximal activity (AC50) in test [1] (setting [3]) was 4.9 µM [falling, full curve, poor fit]; in test [1] (measured here: PEO4 viability), 15.5 µM [falling, partial curve, poor fit]; in test [2] (setting [6]) it was 11.8 µM [falling, partial curve, poor fit]; in test [2] (setting [8]) it was 5.9 µM [falling, partial curve, poor fit]. The z-score is 0.0101 in test [2] (setting [4]), -0.0635 in test [2] (setting [5]) and -0.0791 in test [2] (setting [7]).

Consider `c1cc(-c2cnn3cc(-c4ccc(OCCN5CCCCC5)cc4)cnc23)ccn1`, for which the AC50 was 15.5 µM [falling, partial curve] in test [1] (setting [3]); 9.77 µM [falling, partial curve] in test [1] (measured here: PEO4 viability); 23.5 µM [falling, partial curve] in test [2] (setting [6]); 16.6 µM [falling, partial curve] in test [2] (setting [8]). Besides, the z-score in test [2] (setting [4]) is 0.0878; in test [2] (setting [5]) it was -1.75; in test [2] (setting [7]), -0.196.

As to `C=CC(=O)Nc1cccc(Oc2nc(Nc3ccc(N4CCN(C)CC4)cc3OC)ncc2Cl)c1`, the AC50 is 19.5 µM [falling, partial curve] in test [1] (setting [3]); 24.5 µM [falling, single point] in test [1] (measured here: PEO4 viability); 20.9 µM [falling, partial curve] in test [2] (setting [6]); 8.33 µM [falling, partial curve] in test [2] (setting [8]). Further, the results for the z-score in test [2] (setting [4]), in test [2] (setting [5]) and in test [2] (setting [7]) were -2.42, -0.743 and -2.92, respectively.

As to `O=c1cc(N2CCOCC2)oc2c(-c3cccc4c3sc3ccccc34)cccc12`, the AC50 in test [1] (setting [3]) is 11 µM [falling, partial curve]; in test [1] (measured here: PEO4 viability), 6.92 µM [falling, partial curve]; in test [2] (setting [6]), 20.9 µM [falling, partial curve]; in test [2] (setting [8]), 14.8 µM [falling, partial curve]. The z-score was -0.84 in test [2] (setting [4]), -1.19 in test [2] (setting [5]) and -0.112 in test [2] (setting [7]).

With `Cc1ccccc1C(=O)c1ccc(Nc2ccc(Br)cc2N)cc1Cl`, the AC50 in test [1] (setting [3]) was 15.5 µM [falling, partial curve]; in test [1] (measured here: PEO4 viability), 11 µM [falling, partial curve, poor fit]; in test [2] (setting [6]) it was 33.2 µM [falling, single point]; in test [2] (setting [8]), 18.7 µM [falling, partial curve, poor fit]. Besides, the values for the z-score in test [2] (setting [4]), in test [2] (setting [5]) and in test [2] (setting [7]) were -0.105, 0.194 and 0.717, respectively.

For `O=c1[nH]nc(Sc2ncc([N+](=O)[O-])s2)n1-c1ccc2c(c1)OCCO2`, the AC50 in test [1] (setting [3]) is 13.8 µM [falling, partial curve]; in test [1] (measured here: PEO4 viability), 3.89 µM [falling, full curve]; in test [2] (setting [6]), 9.35 µM [falling, full curve]; in test [2] (setting [8]) it was 10.5 µM [falling, full curve]. Also, the z-score was -0.443 in test [2] (setting [4]), -0.609 in test [2] (setting [5]) and -0.655 in test [2] (setting [7]).

Take `Cc1csc(-c2nnc(Nc3ccc(Oc4ncccc4-c4ccnc(N)n4)cc3)c3ccccc23)c1`: the AC50 in test [1] (setting [3]) was 5.49 µM [falling, partial curve]; in test [1] (measured here: PEO4 viability), 4.9 µM [falling, partial curve, poor fit]; in test [2] (setting [6]), 23.5 µM [falling, partial curve, poor fit]; in test [2] (setting [8]) it was 20.9 µM [falling, partial curve]. For the same molecule, the z-score in test [2] (setting [4]) was 0.24; in test [2] (setting [5]), -0.0882; in test [2] (setting [7]), -0.0777.

As to `CCc1ccc(OCc2ccccc2C(=O)Nc2ccc3nc(C)cc(N)c3c2)cc1`, the AC50 is 4.36 µM [falling, full curve] in test [1] (setting [3]); 4.36 µM [falling, full curve] in test [1] (measured here: PEO4 viability); 5.26 µM [falling, full curve] in test [2] (setting [6]); 8.33 µM [falling, full curve] in test [2] (setting [8]). Also, the figures for the z-score in test [2] (setting [4]), in test [2] (setting [5]) and in test [2] (setting [7]) were -0.862, -0.779 and -0.408, respectively.
